Measured values reported in the RNAGym collection of RNA variant scans (doi:10.1093/nar/gkz1192).
Read counts are not given, so values of variants with three or more changes are uncertain.

B1: CPEB3 Ribozyme (parent)
chain: UAACAGGGGGCCACAGCAGAAGCGUUCACGUCGCAGCCCCUGUCAGAUUCUGGUGAAUCUGCGAAUUCUGCUGUAUAUCUC

Variants of: B1
Assay: self-cleavage, relative activity (ratio to wild type); higher = more cleavage; in vitro, sequencing
Summary of the method: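 After error-prone PCR and barcoding, CPEB3 ribozyme mutant libraries were transcribed with T7 RNA polymerase at 37°C for 5 hours, then given 15 min with DNase I before an EDTA stop, and they cleaved during both steps. Reverse transcription with template switching preceded Illumina sequencing. Relative activity divides a variant's cleaved/total read fraction by the unmutated ribozyme's. At least 5 reads were required per variant, and three batches were averaged.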

Variant	self-cleavage
U41A U69C U72A U80C	0.16
U41A U69C U80C	0.08
U41A U72A U78C	0.14
U41A U72A U80C	0.29
U41A U72C A77G	0.07
U41A U72C U78A	0.44
U41A U72C U78C	0.24
U41A U72C U80A	0.12
U41A U72C U80C	0.39
U41A U74C U76A	0.13
U41A U74C U80C	0.61
U41A U76C U78C	0.43
U41C A45C A56U A57G U72G	0.07
U41C A45C U49A U80C	0.51
U41C A45G A56C G70A A75G	0.24
U41C A45G A56G A77G	0.54
U41C A45G A57G	0.62
U41C A45G A64U U78A	0.3
U41C A45G A65G	0.36
U41C A45G A75G U76C	0.83
U41C A45G C59A A75U	0.28
U41C A45G G52A G53A U69A	0.74
U41C A45G G61U A77G	0.59
U41C A45G U48A	0.17

Variant	self-cleavage
U41C A45G U49C A56G U69C	0.09
U41C A45G U54G U58A U69A U76A	0.19
U41C A45G U58A A65G U72C C79A	0.35
U41C A45G U58C U78C	0.17
U41C A45G U60C	1.07
U41C A45G U60C U72A	0.41
U41C A45G U72A	0.55
U41C A45G U72C U80C	1
U41C A45G U72G	1.13
U41C A45U A47G C62U	0.15
U41C A45U A56G U60C	0.42
U41C A45U A57C U78C	0.05
U41C A45U A57G U67C	0.45
U41C A45U A65C A75G	0.25
U41C A45U G63A U69A U74A	0.26
U41C A45U U49C	0.38
U41C A45U U51C U60C C71A	0.18
U41C A45U U54A U67C	0.45
U41C A45U U67C	0.35
U41C A45U U78C	0.61
U41C A45U U80G	0.96
U41C A47C A75U	0.8
U41C A47C U78C	0.32
U41C A47G A57G A77G	0.7

Variant	self-cleavage
U41C A47G A75G U76C	0.84
U41C A47G A75G U80C	0.64
U41C A47G A75U U80C	1.05
U41C A47G G52A	0.9
U41C A47G G52C	0.69
U41C A47G G73A	1.29
U41C A47G U48C U78A	0.2
U41C A47G U54C	0.97
U41C A47G U58C	1.25
U41C A47U U48C U66C	0.19
U41C A47U U54G	0.31
U41C A47U U60C U67C	0.06
U41C A47U U69C	0.11
U41C A56G C59U A64U G70A G73C	0.24
U41C A56G C59U U66C U72C	0.33
U41C A56G U58A G70C	0.14
U41C A56G U67C U72C A75G	0.43
U41C A56G U69C	0.5
U41C A56U C62U	0.11
U41C A56U C81U	0.88
U41C A56U G70C U74A	0.28
U41C A56U U60A	0.42
U41C A56U U69G A77U U80A	0.38
U41C A56U U74A	1.03

Variant	self-cleavage
U41C A57G A64C U69C	0.34
U41C A57G A65G	0.59
U41C A57G U58C U67A U69C	0.15
U41C A57G U72C A75U U78A	0.93
U41C A57G U72C U80C	1.13
U41C A57G U72G	0.43
U41C A57G U80A	1.15
U41C A57U U78A	0.86
U41C A64G A75U	0.9
U41C A64G U72C	0.79
U41C A64G U76C	1.01
U41C A64U G73A	0.77
U41C A64U U67C U80A C81U	0.22
U41C A64U U69G A77G	0.31
U41C A64U U78C	0.28
U41C A65G U69C	0.5
U41C A65U U67C U76C	0.3
U41C A75G U78C	0.79
U41C C44A U72A	0.12
U41C C44U G55U A57G U60C	0.07
U41C C44U U60A	0.21
U41C C50A A77G	0.94
U41C C50A U54C U67C U69C	0.14
U41C C50A U66C	0.36

Variant	self-cleavage
U41C C50A U67C U80C	0.23
U41C C50U U60C A65G U80C	0.23
U41C C59A U74A	0.57
U41C C62G A64G U80C	0.48
U41C C62G G63A A77G	0.22
U41C C62G U69A	0.19
U41C C62U A65G U69A A75G	0.21
U41C G42A A45G U49C U66C U67A	0.17
U41C G42A A47G U80C	0.38
U41C G42A U54A	0.42
U41C G42A U78C	0.21
U41C G42C A56U U76C U78A	0.21
U41C G42C A64G	0.54
U41C G42C G63U A77U	0.42
U41C G42C U48C	0.15
U41C G42C U60C A75U U76C	0.14
U41C G46A U49A A57G	0.1
U41C G46A U51G	0.16
U41C G46A U54A U72A	0.19
U41C G46A U72A	0.2
U41C G46U U49C U54C A57G G73U	0.07
U41C G46U U49C U72A	0.1
U41C G52A G53A C59U U60C U69C	0.58
U41C G52A U67C U72A	0.32

Variant	self-cleavage
U41C G61U A64U U72C	0.23
U41C G63A A64U	0.3
U41C G63A U66A C68G	0.3
U41C G70U U80C	0.28
U41C G73A U74A	1.46
U41C G73U U76A	1.22
U41C U43A A45C	0.29
U41C U43A A47U	0.23
U41C U43A A56G U78A	0.52
U41C U43A A56U U66C	0.14
U41C U43A A57G U72G	0.42
U41C U43A U67C	0.15
U41C U43A U69A	0.34
U41C U43A U76C	0.93
U41C U43C A45G A56G A65U	0.11
U41C U43C A56G U69A	0.19
U41C U43C A56G U69A U80C	0.05
U41C U43C A56U A57G U72A	0.15
U41C U43C A64G U72A	0.2
U41C U43C C50A U60C	0.04
U41C U43C C81U	0.42
U41C U43C U48A U72C A77G U80A	0.09
U41C U43C U49A U78C	0.13
U41C U43C U54C A75U	0.27

Variant	self-cleavage
U41C U43C U67A U69C U74C U78A	0.06
U41C U43C U72A	0.3
U41C U43C U72G	0.43
U41C U43C U78C U80C	0.2
U41C U43G U51A U69C	0.43
U41C U43G U60C A65G C68U	0.15
U41C U48A A64G U66C A77G	0.06
U41C U48A A77G	0.37
U41C U48A U51C U80C	0.26
U41C U48C A56G A57G	0.73
U41C U48C A56U	0.37
U41C U48C A56U U72G	0.11
U41C U48C A65G U67C	0.15
U41C U48C C59A	0.17
U41C U48C C62U U72A	0.13
U41C U48C G53A U72C	0.66
U41C U48C G61C U74A	0.22
U41C U48C U51A G55A	0.37
U41C U48C U51C	0.6
U41C U48C U51C U58C	0.09
U41C U48C U54A	1.07
U41C U48C U54C U60C U67G U78A	0.29
U41C U48C U54G U72A	0.36
